Data: PubChem BioAssay AID1347071 (National Center for Advancing Translational Sciences (NCATS), 2019)
Hit rate of the full screen: of about 410,000 compounds, about 260 (0.063%) were called active. The inconclusive results got no clear call from the source; some entries with a clear call stand among them for comparison. Calls follow the shape of the dose curve; as a rule, active = well fitted activation curve with a large enough effect; inconclusive = small, poorly fitted or top-dose-only effect; inactive = no such curve, though single readings can be large or run the other way. Potencies of inconclusive entries are left out as doubtful fits.

test: qHTS for compounds that reverse cellular toxicity of Amyloid beta (A-beta) peptide in yeast: Primary Screen; conditions: yeast expressing A-beta42, growth rescue, OD600, 48 h; growth rescue: at 46.1 µM (top of the series), 0% DMSO, 100% iron-clioquinol control; also: nearly all actives have a fitted effect of over 55% in size
Procedure, shortened: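 Growth rescue measured by 600 nm absorbance after 48 h yeast culture at 30 C with compound. Values normalized between DMSO and an equimolar ferric chloride plus clioquinol control.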
Potency is read from the fitted curve at half-maximal effect; tags tell the direction and shape of the fitted curve.

Compound | Potency | growth rescue
Cn1c(-c2csc(-c3ccccc3)n2)n[nH]c1=S | inconclusive [activator, partial curve] | 
Cc1ccc(/C=N/NC(=S)N2CCOCC2)cc1 | inconclusive [activator, single point] | 
Clc1ccccc1-c1nc2ccccc2c2nncn12 |  | inactive: -3.67%
CN(C(=O)c1ccc2c(c1)C(=O)N(CCC1=CCCCC1)C2=O)C1CCCCC1 |  | inactive: -0.139%
Cc1cccc(NC(=S)NCCc2ccccc2)n1 | inconclusive [activator, partial curve, poor fit] | 
O=C1CC(Sc2nnc(-c3ccccc3O)o2)C(=O)N1c1ccccc1 (stereo not given) |  | inactive: -31.5%
Cn1c(SCc2ccccc2Cl)nnc1-c1cnccn1 |  | inactive: 14.1%
Cc1ccc(S(=O)(=O)/N=C(\Sc2ccccc2)c2ccccc2)cc1 | inconclusive [activator, partial curve] | 
Cc1cc(C)c2c(N)c(C(=O)NCc3ccco3)sc2n1 | inconclusive [activator, partial curve, poor fit] | 
CC(C)(C)NS(=O)(=O)c1ccc(NC(=O)C(Sc2ccccc2)c2ccccc2)cc1 (stereo not given) | inconclusive [activator, single point] | 
COc1ccc(OC)c(NS(=O)(=O)c2ccc(NC(=O)C3COc4ccccc4O3)cc2)c1 (stereo not given) | inconclusive [activator, partial curve, poor fit] | 
COc1ccc(-n2c(Cc3cccn3C)nnc2SCC(=O)Nc2ccc(C)cc2)cc1 | inconclusive [activator, partial curve, poor fit] | 
CC(C)(C)CC(=O)Nc1nnc(-c2cccs2)s1 | inconclusive [activator, single point] | 
O=C(Oc1c(-c2ccccc2)c(=O)n2c3c(cccc13)CC2)c1cccc([N+](=O)[O-])c1 | active: 14.1 µM | 
COc1cccc(NC(=O)CN(C)S(=O)(=O)/C=C/c2ccccc2)c1 | inconclusive [activator, single point] | 
Cc1ccc(S(=O)(=O)c2c(C)nn(C(C)(C)C)c2OC(=O)C(C)C)cc1 | inconclusive [activator, full curve, poor fit] | 
CCOC(=O)C1(C)C=C(Nc2cccc(C(=O)O)c2)C(=O)N1c1ccccc1 (stereo not given) |  | inactive: -3%
O=C(c1ccccc1)N1c2nc(-c3ccco3)nn2C2(CCCCC2)[C@@H]2CCCC[C@@H]21 |  | inactive: -6.17%
COC(=O)c1ccc(OCCOc2ccccc2C)cc1 |  | inactive: -6.06%
Cc1ccc(C2CC(c3ccccc3)=NN2c2ccccc2)o1 (stereo not given) |  | inactive: 3.75%
